{"source": "ChEMBL document CHEMBL1201862", "about": "“PubChem BioAssay data set” (2004)", "note": "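Cultured in 96-well plates, cells were exposed to test compound for 48 hours across five concentrations. GI50 = concentration required for 50% inhibition of growth.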 The source made the active and inactive calls. Rule as the data show it: active = GI50 up to about 1.1 µM and inactive = higher.", "data": [{"tested_on": "NCI-H322M", "test": "growth of human tumour cells (NCI), 48 h", "values": [{"smiles": "NC(=O)Nc1ccc(S(=O)(=O)Nc2ccc(S(N)(=O)=O)cc2)cc1", "GI50": "inactive: > 100 µM"}, {"smiles": "NS(=O)(=O)c1nnc(NC(=O)C23CC4CC(CC(C4)C2)C3)s1", "GI50": "inactive: 16 µM"}, {"smiles": "CN(C)S(=O)(=O)c1ccc(Nc2ccc(O)c3c2C(=O)c2c([N+](=O)[O-])ccc(O)c2C3=O)cc1", "GI50": "inactive: > 100 µM"}, {"smiles": "CC(=O)N1C=Cc2c(c(C)c3c([nH]c4ccccc43)c2C)C1", "GI50": "inactive: 7.41 µM"}, {"smiles": "Cc1nc2c(O)nc3ccccc3c2o1", "GI50": "inactive: > 100 µM"}, {"smiles": "CC(C)=CCNc1ncnc2c1c(C#N)cn2C1OC(CO)C(O)C1O", "note": "(stereo not given)", "GI50": "inactive: 2.08 µM"}, {"smiles": "COc1cc2c(/C=C3/C(=O)N(C)c4ccc(O)cc43)c(Cl)[nH]c2cc1C", "GI50": "active: 0.879 µM"}, {"smiles": "COc1ccc(NC(=O)/C(=C/c2ccccc2)C(C)=O)cc1", "GI50": "inactive: 11.9 µM"}, {"smiles": "O=S(=O)(c1ccc(/N=C2\\NC(c3ccc(O)cc3)(c3ccccc3O)c3ccccc32)cc1)c1ccc(/N=C2/NC(c3ccc(O)cc3)(c3ccccc3O)c3ccccc32)cc1", "note": "(stereo not given)", "GI50": "inactive: 4.21 µM"}, {"smiles": "NC(=O)C/C=C/CC(N)=O", "GI50": "inactive: > 100 µM"}, {"smiles": "O=C/C(=C(/Br)I)c1ccccc1", "GI50": "inactive: 15.4 µM"}, {"smiles": "Cc1[nH]n(-c2ccccc2)c(=O)c1C(N(CCc1ccccc1)C1=NCC(C)S1)(C(F)(F)F)C(F)(F)F", "note": "(stereo not given)", "GI50": "inactive: 21.6 µM"}, {"smiles": "COCC1OC([P+](c2ccccc2)(c2ccccc2)c2ccccc2)CC(OC)C1OC", "note": "(stereo not given)", "GI50": "inactive: 72.4 µM"}, {"smiles": "CN(C)c1ccc(C2CC(=O)C(C#N)=C(c3ccccc3)NN2C)cc1", "note": "(stereo not given)", "GI50": "inactive: 6.56 µM"}, {"smiles": "CCOC(=O)CCC(NC(=O)c1ccc(/N=C/c2nc3cc(C(F)(F)F)ccc3nc2-c2ccccc2)cc1)C(=O)OCC", "note": "(stereo not given)", "GI50": "inactive: > 50 µM"}, {"smiles": "O=[N+]([O-])c1ccc(N2N=C(c3ccc4ccccc4c3O)CC2c2ccc(Cl)cc2)c([N+](=O)[O-])c1", "note": "(stereo not given)", "GI50": "inactive: 32.1 µM"}, {"smiles": "c1ccc(CNn2nnc3ccccc32)cc1", "GI50": "inactive: > 100 µM"}, {"smiles": "O=C1C2=Cc3ccccc3OC2(O)Oc2cc3ccccc3cc21", "note": "(stereo not given)", "GI50": "inactive: > 100 µM"}, {"smiles": "Nc1ncnc2c1ccn2CC#CCO", "GI50": "inactive: > 100 µM"}, {"smiles": "COc1cc2c(/C=C3/C(=O)Nc4ccc(Cl)cc43)c(Cl)n(Cc3ccccc3)c2cc1C", "GI50": "inactive: 2.15 µM"}, {"smiles": "COc1cc2c(cc1OC)CN1CCCc3cc(OC)c(OC)cc3C1C2", "note": "(stereo not given)", "GI50": "inactive: 50.2 µM"}, {"smiles": "Nc1n[nH]c(Nc2ccc(Cl)cc2)c1P(=O)(c1ccccc1)c1ccccc1", "GI50": "inactive: 27.6 µM"}, {"smiles": "CCCCCCc1cc2cc(-c3csc(CC#N)n3)c(=O)oc2cc1O", "GI50": "inactive: > 100 µM"}, {"smiles": "O=C(Cc1csc(N/N=C2\\C(=O)Nc3ccccc32)n1)Nc1ccccc1", "GI50": "inactive: 39.3 µM"}, {"smiles": "NCCCCC(N)C(=O)NCCNc1ccc(NCCNC(=O)C(N)CCCCN)c2c1C(=O)c1ccccc1C2=O", "note": "(stereo not given)", "GI50": "inactive: 21.2 µM"}, {"smiles": "c1ccc2c(c1)OCCc1cn[nH]c1-2", "GI50": "inactive: > 100 µM"}, {"smiles": "O=C(Nc1ccccc1)Nn1c(-c2cccs2)nc2ccc(I)cc2c1=O", "GI50": "inactive: 21.6 µM"}, {"smiles": "CSC1CC2C(CC1(C)SC)C2(C)C", "note": "(stereo not given)", "GI50": "inactive: > 100 µM"}, {"smiles": "O=C1C(Cl)=C(Cl)C(Cl)(Cl)C(Cl)C1(Cl)Cl", "note": "(stereo not given)", "GI50": "inactive: 13.5 µM"}, {"smiles": "CC1=C(/C=C/C2=CC(=C\\C(=O)O)/CC(C3=C(C)CCCC3(C)C)C2)C(C)(C)CCC1", "note": "(stereo not given)", "GI50": "inactive: 12.6 µM"}, {"smiles": "O=C(O)C(C(C(=O)O)P(=O)(O)O)P(=O)(O)O", "note": "(stereo not given)", "GI50": "inactive: > 100 µM"}, {"smiles": "CC(C)(C)[Si](C)(C)Oc1cc(CO)cc2c1cc(=N)o[n+]2[O-]", "GI50": "inactive: > 10 µM"}, {"smiles": "CCN(CC)CCNc1n[n+]([O-])c2cc([N+](=O)[O-])ccc2[n+]1[O-]", "GI50": "inactive: 2.34 µM"}, {"smiles": "CNC(=O)OCc1c(COC(=O)NC)c(C)n(-c2ccc(Br)cc2)c1C", "GI50": "inactive: 15.1 µM"}, {"smiles": "COc1ccc(SC(C)(SC)c2ccccn2)c(OC)n1", "note": "(stereo not given)", "GI50": "inactive: > 100 µM"}, {"smiles": "COc1ccccc1C(=O)N(C)c1ccc(Cl)c(C(=O)OC(C)C)c1", "GI50": "inactive: > 100 µM"}, {"smiles": "CC1(C)C2CC(O)C1(C)CC2=O", "note": "(stereo not given)", "GI50": "inactive: 39.5 µM"}, {"smiles": "CCOc1ccc(/N=C\\c2cc(OC)c(OC)c(OC)c2)cc1", "GI50": "inactive: > 100 µM"}, {"smiles": "CN(CCN)[C@H](CSSC[C@@H](c1ccccc1O)N(C)CCN)c1ccccc1O", "GI50": "inactive: 10.7 µM"}, {"smiles": "O=S1OC[C@H](CCCl)O1", "note": "(stereo not given in full)", "GI50": "inactive: > 100 µM"}, {"smiles": "N#Cc1ccc(C(=O)/C=C/c2ccc(O)c(O)c2)cc1", "GI50": "inactive: 16.3 µM"}, {"smiles": "Cc1c(C)c2cc3c(=O)ccoc3c(C)c2oc1=O", "GI50": "inactive: > 100 µM"}, {"smiles": "CC(C)Nc1[nH]c(C(=O)c2ccccc2)c(N)c1C(=S)Nc1ccccc1", "GI50": "inactive: 50.2 µM"}, {"smiles": "COc1ccccc1NC(=O)C1=C(C)NC(C)=C(C(=O)Nc2ccccc2OC)C1c1ccco1", "GI50": "inactive: 10.9 µM"}, {"smiles": "C[C@@H]1C[C@H](O)[C@]2(O)O[C@@H]3C[C@@]4(C=O)[C@@H](CC=C5[C@@H]4CC[C@]4(C)[C@@H](C6=CC(=O)OC6)CC[C@]54O)C[C@H]3O[C@@H]2O1", "GI50": "active: < 0.018 µM"}]}]}
